Source: the supplement of paper PMC4604168 (melanoma cell lines)
Some of the results follow. Most values come without repeats; read them as rough.

How the values were obtained:
Test in all cases: cell count relative to DMSO control; melanoma cells; higher = more viable cells
Settings in all cases: library dose: low library concentration; 72 h
[1] = tested on: MZ2-MEL
[2] = tested on: MeWo
[3] = tested on: RPMI7951
[4] = tested on: RVH-421
[5] = tested on: SkMel28
[6] = tested on: SkMel2
[7] = tested on: SkMel30
[8] = tested on: UACC62
[9] = tested on: SkMel5
[10] = tested on: UACC257
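Further: cell number obtained by counting DAPI-stained nuclei in high-throughput microscope images with image analysis software, screen run in 1,536-well plates.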

| Structure (SMILES) | cell count [1] [%] | cell count [2] [%] | cell count [3] [%] | cell count [4] [%] | cell count [5] [%] | cell count [6] [%] | cell count [7] [%] | cell count [8] [%] | cell count [9] [%] | cell count [10] [%] |
| --- | --- | --- | --- | --- | --- | --- | --- | --- | --- | --- |
| N#CC[C@H](C1CCCC1)n1cc(-c2ncnc3[nH]ccc23)cn1 [ruxolitinib] + O=c1[nH]nc(Sc2ncc([N+](=O)[O-])s2)n1-c1ccc2c(c1)OCCO2 [BI78D3] (first compound 1 µM, partner dose 0.2 µM) | 100 | 91 | 102 | 96.4 | 95.3 | 111 | 99.1 | 131 |  |  |
| N#CC[C@H](C1CCCC1)n1cc(-c2ncnc3[nH]ccc23)cn1 [ruxolitinib] + CCCS(=O)(=O)Nc1ccc(F)c(C(=O)c2c[nH]c3ncc(Cl)cc23)c1F [PLX4720] (first compound 1 µM, partner dose 0.08 µM) | 82.7 | 95.3 | 104 | 96.5 | 120 | 93.4 | 95.5 | 98.9 |  |  |
| N#CC[C@H](C1CCCC1)n1cc(-c2ncnc3[nH]ccc23)cn1 [ruxolitinib] + CC(=O)O[C@@]12CO[C@@H]1C[C@H](O)[C@@]1(C)C(=O)[C@H](O)C3=C(C)[C@@H](OC(=O)[C@H](O)[C@@H](NC(=O)OC(C)(C)C)c4ccccc4)C[C@@](O)([C@@H](OC(=O)c4ccccc4)[C@H]21)C3(C)C [Docetaxel] (first compound 1 µM, partner dose 0.0001 µM) | 70.9 | 59.5 | 45.4 | 71.6 | 72.4 | 57.3 | 49.4 | 40.6 |  |  |
| CC[C@]1(O)C[C@H]2CN(CCc3c([nH]c4ccccc34)[C@@](C(=O)OC)(c3cc4c(cc3OC)N(C=O)[C@H]3[C@@](O)(C(=O)OC)[C@H](OC(C)=O)[C@]5(CC)C=CCN6CC[C@]43[C@@H]65)C2)C1 [vincristine] + O=C(O)[C@@H]1[O][Sb](=[O])([O][Sb]2(=[O])[O][C@H]([C@H](O)CO)[C@H](O)[C@H](C(=O)O)[O]2)[O][C@H]([C@H](O)CO)[C@@H]1O [stibogluconate] (first compound 0.0001 µM, partner dose 2 µM) | 106 | 114 | 117 | 111 | 96.7 | 107 | 89.3 | 89.2 |  |  |
| Cc1cc(Nc2cc(N3CCN(C)CC3)nc(Sc3ccc(NC(=O)C4CC4)cc3)n2)n[nH]1 [Tozasertib] + CC[C@]1(O)C[C@H]2CN(CCc3c([nH]c4ccccc34)[C@@](C(=O)OC)(c3cc4c(cc3OC)N(C=O)[C@H]3[C@@](O)(C(=O)OC)[C@H](OC(C)=O)[C@]5(CC)C=CCN6CC[C@]43[C@@H]65)C2)C1 [vincristine] (first compound 0.006 µM, partner dose 0.0001 µM) | 94.8 | 99.1 | 68.3 | 117 | 93.6 | 99 | 69.5 | 75.6 |  |  |
| N#CC[C@H](C1CCCC1)n1cc(-c2ncnc3[nH]ccc23)cn1 [ruxolitinib] + C[C@]1(c2nc3c(C(N)=O)cccc3[nH]2)CCCN1 [Veliparib] (first compound 1 µM, partner dose 1.4 µM) | 100 | 90.4 | 99.5 | 98.8 | 106 |  | 98.5 |  |  |  |
| Cc1cc(Nc2cc(N3CCN(C)CC3)nc(Sc3ccc(NC(=O)C4CC4)cc3)n2)n[nH]1 [Tozasertib] + Cc1cc(Nc2cc(N3CCN(C)CC3)nc(/C=C/c3ccccc3)n2)n[nH]1 [ENMD2076] (first compound 0.006 µM, partner dose 0.04 µM) |  | 95 | 106 | 101 | 99.3 | 98.3 | 96.7 | 99.4 |  |  |
| N#CC[C@H](C1CCCC1)n1cc(-c2ncnc3[nH]ccc23)cn1 [ruxolitinib] + CCN(CC)CCNC(=O)c1c(C)[nH]c(/C=C2\C(=O)Nc3ccc(F)cc32)c1C [sunitinib] (first compound 1 µM, partner dose 0.4 µM) |  | 100 | 115 | 120 | 92.2 | 111 | 98.5 | 126 |  |  |
| Cc1cc(Nc2cc(N3CCN(C)CC3)nc(Sc3ccc(NC(=O)C4CC4)cc3)n2)n[nH]1 [Tozasertib] + Cc1cc([N+](=O)[O-])ccc1NS(=O)(=O)c1cc(Cl)ccc1Cl [FH535] (first compound 0.006 µM, partner dose 1 µM) |  | 87.2 | 86.5 | 83.2 | 81.1 | 90.2 | 111 | 80.2 | 90.7 | 103 |
| N#CC[C@H](C1CCCC1)n1cc(-c2ncnc3[nH]ccc23)cn1 [ruxolitinib] + O=C(O)[C@@H]1[O][Sb](=[O])([O][Sb]2(=[O])[O][C@H]([C@H](O)CO)[C@H](O)[C@H](C(=O)O)[O]2)[O][C@H]([C@H](O)CO)[C@@H]1O [stibogluconate] (first compound 1 µM, partner dose 2 µM) | 97.2 | 92.4 | 87.2 |  | 114 | 92.4 | 96.5 | 106 |  |  |
| N#CC[C@H](C1CCCC1)n1cc(-c2ncnc3[nH]ccc23)cn1 [ruxolitinib] + Cc1ccc(Nc2nccc(N(C)c3ccc4c(C)n(C)nc4c3)n2)cc1S(N)(=O)=O [Pazopanib] (first compound 1 µM, partner dose 0.4 µM) | 76 | 95.3 | 94.9 |  | 91.1 | 96 | 83.1 | 103 |  |  |
| N#CC[C@H](C1CCCC1)n1cc(-c2ncnc3[nH]ccc23)cn1 [ruxolitinib] + C[C@@H]1CCN(C(=O)CC#N)C[C@@H]1N(C)c1ncnc2[nH]ccc12 [CP690550] (first compound 1 µM, partner dose 1 µM) | 113 | 93.9 |  | 125 | 101 | 120 | 103 | 117 | 99.1 | 88.7 |
| Cc1cc(Nc2cc(N3CCN(C)CC3)nc(Sc3ccc(NC(=O)C4CC4)cc3)n2)n[nH]1 [Tozasertib] + Nc1cccc2c1CN(C1CCC(=O)NC1=O)C2=O [lenalidomide] (first compound 0.006 µM, partner dose 1 µM) | 98.5 | 83.8 | 113 | 115 | 85 |  | 88.6 | 106 |  |  |
| CC[C@]1(O)C[C@H]2CN(CCc3c([nH]c4ccccc34)[C@@](C(=O)OC)(c3cc4c(cc3OC)N(C=O)[C@H]3[C@@](O)(C(=O)OC)[C@H](OC(C)=O)[C@]5(CC)C=CCN6CC[C@]43[C@@H]65)C2)C1 [vincristine] + Cn1c(=O)n(-c2ccc(C(C)(C)C#N)cc2)c2c3cc(-c4cnc5ccccc5c4)ccc3ncc21 [NVP-BEZ235] (first compound 0.0001 µM, partner dose 0.004 µM) |  | 70.3 | 58.6 | 78.2 | 67.3 | 88.7 | 51.6 | 51.9 |  |  |
| CC[C@]1(O)C[C@H]2CN(CCc3c([nH]c4ccccc34)[C@@](C(=O)OC)(c3cc4c(cc3OC)N(C=O)[C@H]3[C@@](O)(C(=O)OC)[C@H](OC(C)=O)[C@]5(CC)C=CCN6CC[C@]43[C@@H]65)C2)C1 [vincristine] + Nc1cccc2c1CN(C1CCC(=O)NC1=O)C2=O [lenalidomide] (first compound 0.0001 µM, partner dose 1 µM) |  | 87.9 | 51.6 | 78.4 | 83.7 |  | 53.6 | 55.8 |  |  |
| CC[C@]1(O)C[C@H]2CN(CCc3c([nH]c4ccccc34)[C@@](C(=O)OC)(c3cc4c(cc3OC)N(C=O)[C@H]3[C@@](O)(C(=O)OC)[C@H](OC(C)=O)[C@]5(CC)C=CCN6CC[C@]43[C@@H]65)C2)C1 [vincristine] + NC(=O)c1ccc(N(C(N)=O)c2c(F)cccc2F)nc1-c1ccc(F)cc1F [VX702] (first compound 0.0001 µM, partner dose 0.4 µM) | 97 | 88.7 | 61.1 | 72.2 | 74.1 |  | 69.3 | 79.7 |  |  |
| N#CC[C@H](C1CCCC1)n1cc(-c2ncnc3[nH]ccc23)cn1 [ruxolitinib] + CCCCCCCCCCCCCCCCCCOP(=O)([O-])OC1CC[N+](C)(C)CC1 [Perifosine] (first compound 1 µM, partner dose 0.4 µM) | 106 | 81.9 | 89.5 | 74.4 |  | 88.9 | 81.9 | 121 |  |  |
| N#CC[C@H](C1CCCC1)n1cc(-c2ncnc3[nH]ccc23)cn1 [ruxolitinib] + NC1(c2ccc(-c3nc4ccn5c(=O)[nH]nc5c4cc3-c3ccccc3)cc2)CCC1 [MK2206] (first compound 1 µM, partner dose 0.4 µM) |  | 94.8 | 113 | 102 | 97 | 92 | 96.6 | 91.6 |  |  |
| N#CC[C@H](C1CCCC1)n1cc(-c2ncnc3[nH]ccc23)cn1 [ruxolitinib] + Cn1nnc2c(C(N)=O)ncn2c1=O [temozolomide] (first compound 1 µM, partner dose 2 µM) | 100 | 98.9 | 99.9 |  | 96.5 | 106 | 115 | 95 |  |  |
| CC[C@]1(O)C[C@H]2CN(CCc3c([nH]c4ccccc34)[C@@](C(=O)OC)(c3cc4c(cc3OC)N(C=O)[C@H]3[C@@](O)(C(=O)OC)[C@H](OC(C)=O)[C@]5(CC)C=CCN6CC[C@]43[C@@H]65)C2)C1 [vincristine] + CCCCCCCCCCCCCCCCCCOP(=O)([O-])OC1CC[N+](C)(C)CC1 [Perifosine] (first compound 0.0001 µM, partner dose 0.4 µM) | 96.8 | 79.7 | 74.7 | 87.7 | 70.7 |  | 60.8 | 63.7 |  |  |
| CC[C@]1(O)C[C@H]2CN(CCc3c([nH]c4ccccc34)[C@@](C(=O)OC)(c3cc4c(cc3OC)N(C=O)[C@H]3[C@@](O)(C(=O)OC)[C@H](OC(C)=O)[C@]5(CC)C=CCN6CC[C@]43[C@@H]65)C2)C1 [vincristine] + COC(=O)c1sccc1S(=O)(=O)Nc1ccc(Nc2ccccc2)cc1OC [GSK0660] (first compound 0.0001 µM, partner dose 1 µM) |  | 72.6 | 46.9 | 68.5 | 58 | 72.8 | 56.1 | 53 | 76.1 | 53.2 |
| CC[C@]1(O)C[C@H]2CN(CCc3c([nH]c4ccccc34)[C@@](C(=O)OC)(c3cc4c(cc3OC)N(C=O)[C@H]3[C@@](O)(C(=O)OC)[C@H](OC(C)=O)[C@]5(CC)C=CCN6CC[C@]43[C@@H]65)C2)C1 [vincristine] + C=C(c1ccc(C(=O)O)cc1)c1cc2c(cc1C)C(C)(C)CCC2(C)C [Bexarotene] (first compound 0.0001 µM, partner dose 2 µM) |  | 82.5 | 67 | 112 | 69.8 | 77.1 | 60.8 | 62.5 |  |  |
| CC[C@]1(O)C[C@H]2CN(CCc3c([nH]c4ccccc34)[C@@](C(=O)OC)(c3cc4c(cc3OC)N(C=O)[C@H]3[C@@](O)(C(=O)OC)[C@H](OC(C)=O)[C@]5(CC)C=CCN6CC[C@]43[C@@H]65)C2)C1 [vincristine] + Cn1cnc2c(F)c(Nc3ccc(Br)cc3Cl)c(C(=O)NOCCO)cc21 [selumetinib] (first compound 0.0001 µM, partner dose 0.015 µM) | 94.7 | 90.7 | 51.6 | 84.1 | 73.7 |  | 55 | 57.2 |  |  |
